Reference: publication PMC2844429
These are yes or no findings as the source states them, for the method shown. For some assays here: In cells and extracts the contact can be indirect. Some entries that bind do so weakly or less than the wild type.

Experiments:
[1] = target: T1, Ozz (Neuralized-like protein 2), full length, two-hybrid bait (UniProt Q9D0S4); experiment: two-hybrid; full length Ozz as bait, MyHCemb constructs as preys in pEXP-AD502 (GAL4 activation domain), co-transformed into yeast strain Mav203; reporters HIS3 and LacZ
T1 sequence: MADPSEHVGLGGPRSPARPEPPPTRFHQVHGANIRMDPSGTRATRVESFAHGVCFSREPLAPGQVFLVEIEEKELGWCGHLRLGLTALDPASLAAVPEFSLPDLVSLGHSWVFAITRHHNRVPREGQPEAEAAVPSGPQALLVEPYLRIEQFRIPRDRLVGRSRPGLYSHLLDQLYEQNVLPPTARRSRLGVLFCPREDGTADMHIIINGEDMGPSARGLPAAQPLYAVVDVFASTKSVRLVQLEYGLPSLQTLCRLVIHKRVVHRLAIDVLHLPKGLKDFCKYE

[2] = target: embryonic myosin heavy chain (MyHCemb/Myh3), endogenous (mouse (endogenous in primary myoblasts and embryonic muscle)) (UniProt P13541); experiment: SEC; soluble cytoplasmic (S) fraction of embryonic muscle on Superose 6; fractions immunoblotted; data not shown
[3] = target: embryonic myosin heavy chain (MyHCemb/Myh3), endogenous (mouse (endogenous in primary myoblasts and embryonic muscle)) (UniProt P13541); experiment: SEC; sarcomeric (P) fraction of E14.5, E16.5, E18.5 embryonic muscle on Superose 6; fractions immunoblotted with anti-MyHCemb, anti-Ozz, anti-MLC; buffer 20 mM Tris-HCl pH 8.0, 200 mM NaCl, 5 mM MgCl2, 5 mM DTT
[4] = target: embryonic myosin heavy chain (MyHCemb/Myh3), endogenous (mouse (endogenous in primary myoblasts and embryonic muscle)) (UniProt P13541); experiment: co-purification with thin-thick filaments; classical preparation of muscle thin-thick filaments from E16.5 embryos (procedure of Trinick et al.), Western blot
[5] = target: embryonic myosin heavy chain (MyHCemb/Myh3), endogenous (mouse (endogenous in primary myoblasts and embryonic muscle)) (UniProt P13541); experiment: co-IP; sarcomeric insoluble (P) fraction of E16.5 embryonic muscle; IP with anti-MyHCemb or anti-Elo C on Protein G Dynabeads; blots with anti-MyHCemb, anti-Ozz, anti-MLC
[6] = target: embryonic myosin heavy chain (MyHCemb/Myh3), endogenous (mouse (endogenous in primary myoblasts and embryonic muscle)) (UniProt P13541); experiment: SEC; sarcomeric (P) fraction of E14.5, E16.5, E18.5 embryonic muscle on Superose 6; fractions immunoblotted with anti-MyHCemb, anti-Ozz, anti-MLC; buffer 20 mM Tris-HCl pH 8.0, 200 mM NaCl, 5 mM MgCl2, 5 mM DTT; remark: listed apart in the source
[7] = target: embryonic myosin heavy chain (MyHCemb/Myh3), endogenous (mouse (endogenous in primary myoblasts and embryonic muscle)) (UniProt P13541); experiment: co-IP; crude lysates of primary myoblast cultures (day 0, 2, 4); IP with anti-MyHCemb (2B6) or anti-Ozz, isotype IgG as control; lysis buffer 50 mM HEPES pH 7.5, 150 mM NaCl, 1% Igepal CA-630, 0.5% deoxycholate, 0.1% SDS; blot with anti-Ozz and anti-MyHCemb

## MyHCemb (1042-1535 aa), two-hybrid prey (from UniProt P13541 1042-1535) (domain or fragment)
[1]
  binding: binds weakly

## MyHCemb (1536-1871 aa), two-hybrid prey (from UniProt P13541 1536-1871) (domain or fragment)
[1]
  binding: no binding

## MyHCemb (1536-1941 aa), two-hybrid prey (from UniProt P13541 1536-1940) (domain or fragment)
[1]
  binding: binds

## MyHCemb (1738-1941 aa), two-hybrid prey (from UniProt P13541 1738-1940) (domain or fragment)
[1]
  binding: no binding

## MyHCemb full length head/neck domain (residues 1-1040), two-hybrid prey (from UniProt P13541 1-1040) (domain or fragment)
[1]
  binding: no binding

## MyHCemb full length tail domain (residues 1040-1941), two-hybrid prey (from UniProt P13541 1040-1940) (domain or fragment)
[1]
  binding: binds

## embryonic myosin heavy chain (MyHCemb/Myh3), endogenous (from UniProt P13541 1-1940)
[2]
  binding: binds
[3]
  binding: binds

B1: Ozz, endogenous (protein, UniProt Q9D0S4 1-285)
chain: MADPSEHVGLGGPRSPARPEPPPTRFHQVHGANIRMDPSGTRATRVESFAHGVCFSREPLAPGQVFLVEIEEKELGWCGHLRLGLTALDPASLAAVPEFSLPDLVSLGHSWVFAITRHHNRVPREGQPEAEAAVPSGPQALLVEPYLRIEQFRIPRDRLVGRSRPGLYSHLLDQLYEQNVLPPTARRSRLGVLFCPREDGTADMHIIINGEDMGPSARGLPAAQPLYAVVDVFASTKSVRLVQLEYGLPSLQTLCRLVIHKRVVHRLAIDVLHLPKGLKDFCKYE
[4]
  binding: binds
[5]
  binding: binds
[6]
  binding: binds
[7]
  binding: binds

B2: MyHCemb (1872-1941 aa), two-hybrid prey (domain or fragment, UniProt P13541 1872-1940)
chain: LQVKVKSYKRQAEEADEQANAHLTKFRKAQHELEEAEERADIAESQVNKLRAKTRDFTSSRMVVHESEE
[1]
  binding: no binding

B3: MyHCemb (1901-1941 aa), two-hybrid prey (domain or fragment, UniProt P13541 1901-1940)
chain: QHELEEAEERADIAESQVNKLRAKTRDFTSSRMVVHESEE
[1]
  binding: no binding
